# Screen size: about 310,000 compounds; about 14,000 (4.5%) showed an effect of 50% or more. The effect is printed as a negative number. Some of the results follow.
# Target: human ether-à-go-go-related gene (hERG) potassium channel (human, UniProt Q12809)
# Assay: primary screen, population patch clamp on CHO cells stably expressing hERG
# 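Note: peak tail current of the secondary pulse compared with the same well before compound.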
# Sequence of human ether-à-go-go-related gene (hERG) potassium channel (Q12809 whole entry, looked up): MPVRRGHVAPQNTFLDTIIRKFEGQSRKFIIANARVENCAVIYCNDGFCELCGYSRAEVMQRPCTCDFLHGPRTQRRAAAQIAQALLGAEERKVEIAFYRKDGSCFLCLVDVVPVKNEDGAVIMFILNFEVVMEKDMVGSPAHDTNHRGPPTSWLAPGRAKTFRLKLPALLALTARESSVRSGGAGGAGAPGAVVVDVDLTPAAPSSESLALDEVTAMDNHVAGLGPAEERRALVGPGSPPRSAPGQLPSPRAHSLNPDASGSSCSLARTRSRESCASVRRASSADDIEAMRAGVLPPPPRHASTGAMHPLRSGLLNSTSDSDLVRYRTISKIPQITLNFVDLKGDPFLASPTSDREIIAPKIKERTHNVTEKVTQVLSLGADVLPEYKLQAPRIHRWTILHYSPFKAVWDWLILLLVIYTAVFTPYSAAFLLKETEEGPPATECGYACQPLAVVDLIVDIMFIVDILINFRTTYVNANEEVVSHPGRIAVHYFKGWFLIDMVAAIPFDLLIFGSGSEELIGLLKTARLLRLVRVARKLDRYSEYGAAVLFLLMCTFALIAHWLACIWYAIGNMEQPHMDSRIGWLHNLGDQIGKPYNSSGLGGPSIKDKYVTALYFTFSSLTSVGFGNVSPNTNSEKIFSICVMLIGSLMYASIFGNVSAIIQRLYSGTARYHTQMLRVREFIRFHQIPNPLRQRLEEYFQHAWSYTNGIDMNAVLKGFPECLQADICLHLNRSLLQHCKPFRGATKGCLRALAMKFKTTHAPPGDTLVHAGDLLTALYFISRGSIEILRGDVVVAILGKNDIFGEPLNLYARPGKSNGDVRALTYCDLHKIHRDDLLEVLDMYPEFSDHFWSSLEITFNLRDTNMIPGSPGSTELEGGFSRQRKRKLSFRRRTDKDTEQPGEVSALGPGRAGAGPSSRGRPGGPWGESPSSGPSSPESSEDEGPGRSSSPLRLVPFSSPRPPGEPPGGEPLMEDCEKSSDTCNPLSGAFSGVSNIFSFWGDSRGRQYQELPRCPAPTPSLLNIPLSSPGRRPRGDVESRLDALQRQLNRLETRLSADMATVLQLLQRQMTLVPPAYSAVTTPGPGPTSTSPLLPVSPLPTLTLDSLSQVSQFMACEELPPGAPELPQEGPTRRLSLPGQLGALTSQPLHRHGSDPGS
row,SMILES,"hERG current change (%, negative = inhibition) at 10uM"
1,CCNC(=O)CSc1nnc(CN2CCCCCC2=O)n1-c1ccccn1,21.5%
2,O=C(CN1CCN(CC(=O)Nc2cccc(F)c2)CC1)Nc1ccc(-c2ccccc2)cc1,-28.6%
3,Cc1ccc(C)c(S(=O)(=O)/N=C2\C=C(NS(=O)(=O)c3ccccc3)C(=O)c3ccccc32)c1,7.4%
4,CCOc1ccc(CCNC(=O)C2CCN(S(=O)(=O)N3CCC(C)CC3)CC2)cc1OCC,-4.28%
5,COc1ccc(Br)cc1CSC(=N)N.Cl,-9.13%
6,Cl.O=c1[nH]oc2c1CCNC2,15%
7,Cc1c(C)c2c(OCC(=O)NCCCO)cc3c(c2oc1=O)CCC(C)(C)O3,2.18%
8,CCCCCc1nc2sc3c(c2c(=O)n1N)CCC3,6.53%
9,CC(=O)Nc1nc2ccccc2n1Cc1ccccc1Cl,-2.73%
10,O=C(NNC(=O)c1ccccc1F)c1cccc(Cl)c1,11.5%
11,Cc1cc(C)c(C)c(S(=O)(=O)N2CCCN(C)CC2)c1C,12.7%
12,O=c1cc(Cl)c(-c2ccccc2)n[nH]1,11%
13,Cc1ccc(C)c(NC(=O)COc2coc(CN3CCc4ccccc43)cc2=O)c1,1.1%
14,COc1ccc(S(=O)Cc2ccc(C(=O)NCc3cccc(OC)c3)o2)cc1 (stereo not shown),14%
15,OCCN1CCN(c2nc(-c3ccccc3)c3cc(Cl)ccc3n2)CC1,-26.2%
16,COn1c2c(c3c4nonc4ccc31)CCCC2,-10.4%
17,NC(=O)Nc1ccc(C(=O)N2CCN(S(=O)(=O)Cc3ccccc3)CC2)cc1,-6.86%
18,Cn1c2c(c(=O)n(C)c1=O)C(c1ccc(Cl)cc1)C(C#N)=C(N)O2 (stereo not shown),-18.7%
19,CS(=O)(=O)N(Cc1ccccc1)c1ccc(C(=O)Nc2cccnc2)cc1,-5.96%
20,COc1ccc(Nc2cc(=O)n(C3CCCCC3)c(=O)[nH]2)c(OC)c1,2.89%

row,SMILES,"hERG current change (%, negative = inhibition) at 10uM"
1,COC(=O)c1ccc(NC(=O)COc2coc(CN3CCc4ccccc43)cc2=O)cc1,-1.38%
2,CCN=c1scc(-c2ccc(F)cc2)n1/N=C/c1ccccn1,-0.313%
3,CCCCc1nc(Cl)c(C#N)c2c1CCCC2,-14.7%
4,N#Cc1c(-c2ccco2)cc(-c2ccccn2)nc1N,6.62%
5,O=C(COc1cc2oc(=O)c3c(c2cc1Cl)CCC3)NCc1ccncc1,1.53%
6,Cn1c(SCC(=O)NC(C)(C)C)nnc1-c1cccc(NC(=O)c2ccccc2F)c1,-4.75%
7,CCCC[N+]12CCC(CC1)C(=C(c1ccccc1)c1ccccc1)C2.[Br-],-72.4%
8,CCN(C(=O)COC(=O)CSc1ccc(C(N)=O)cc1[N+](=O)[O-])C1CCCCC1,5.86%
9,CCOC(=O)CNC(=O)CSc1nnc(-c2ccccc2)c(-c2ccccc2)n1,5.02%
10,COc1ccc(CNC(=O)CN2C(=O)CSc3ccc(S(=O)(=O)N4CCOCC4)cc32)c(OC)c1,-31.7%
11,O=C(Nc1ccnn1C1CCN(CCCC2CCCC2)CC1)c1ccccc1Cl,-86.4%
12,CSc1ccc(NC(=O)NCc2cccnc2)cc1,-9.64%
13,Cn1c(C(=O)N2CCc3ccccc3C2)cc2oc3ccccc3c21,18.5%
14,COc1ccc(NC(=O)CSCC(=O)N=c2sccn2C)cc1,11%
15,CCC(/C=N/NC(=O)C(N)=O)CC,24.5%
16,CC(C)CNC(=O)c1cc(-c2ccc(Cl)c(Cl)c2)on1,3.96%
17,CSCC(O)Cn1ncc2ccccc2c1=O (stereo not shown),2.43%
18,CCOc1ccccc1NC(=O)CN1C(=O)COc2ccc(S(=O)(=O)N3CCOCC3)cc21,-1.44%
19,COc1ccccc1-n1cnc2cc(NCc3ccccc3O)ccc21,7.77%
20,CCOC(=O)c1c(N/N=C/c2ccncc2)n[nH]c1C,-10.9%

row,SMILES,"hERG current change (%, negative = inhibition) at 10uM"
1,CC(C)c1ccc(Nc2nnc(SCC(=O)Nc3ncc(S(=O)(=O)c4ccc([N+](=O)[O-])cc4)s3)s2)cc1,13.8%
2,CCCCN(C(=O)c1ccc2c(c1)OCO2)c1ccccc1,-6.27%
3,O=C(CSCCO)N1CCc2ccccc21,-25.8%
4,Cc1cc(NCCCN(C)C)n2nc(-c3cccs3)cc2n1,-23.6%
5,COc1cc(C(C)=O)ccc1OCC(O)CN1CCN(c2ccccc2)CC1 (stereo not shown),-31.5%
6,CCn1c(CC(=O)Nc2ccc(C)cc2)nnc1SCC(=O)N1CCN(c2ccccc2)CC1,-20.8%
7,OCCC1CN(Cc2ccc(-n3cccn3)cc2)CCN1Cc1ccccc1 (stereo not shown),-59.8%
8,O=C(COC(=O)COc1ccc(Cl)cc1)NC1CCS(=O)(=O)C1 (stereo not shown),4.54%
9,COc1ccc(N2CCN(S(=O)(=O)c3ccc4c(c3)N(C(C)=O)CCO4)CC2)cc1,-18.4%
10,COc1ccc(O)c(/C=N/NS(=O)(=O)c2ccc(C)cc2)c1,11.9%
11,Cc1ccc2c(c1)N(C(=O)CCC(=O)NCCCN1CCOCC1)CCO2,5.17%
12,COc1ccc(Cc2nc3ccc(C(=O)NC(C)c4cn(C)nc4C)cc3o2)cc1 (stereo not shown),6.22%
13,COc1ccc(C2CC(c3ccc(Cl)cc3Cl)n3nc(N)nc3N2)cc1 (stereo not shown),0.473%
14,CCN1CC(CN(C)Cc2nc(Cc3ccccc3)no2)CC1=O (stereo not shown),21.7%
15,Cn1c(SCC(=O)Nc2ccc(N3CCOCC3)cc2)nnc1C(F)(F)F,8.41%
16,Cn1ncc(Cl)c1C(=O)N1CCOCC1,16.2%
17,O=C(CNC(=O)c1cccs1)NCC(=O)OCC(=O)c1ccc([N+](=O)[O-])cc1,-1.59%
18,Cc1cccc(-n2ccnc2SCC(=O)c2c(N)n(C3CC3)c(=O)[nH]c2=O)c1C,-0.143%

# Source: publication PMC4336329 (PLoS ONE, 2015)
